# From publication PMC4336329 (PLoS ONE, 2015)
# The campaign covered roughly 310,000 compounds. About 14,000 (4.5%) showed an effect of 50% or more. Effects have a minus sign here. The list shows a part of the results.
# Biological target: human ether-à-go-go-related gene (hERG) potassium channel (human, UniProt Q12809)
# Assay: primary screen, population patch clamp on CHO cells stably expressing hERG
# 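Note: peak tail current of the secondary pulse compared with the same well before compound.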
# Sequence of human ether-à-go-go-related gene (hERG) potassium channel (Q12809 whole entry, looked up): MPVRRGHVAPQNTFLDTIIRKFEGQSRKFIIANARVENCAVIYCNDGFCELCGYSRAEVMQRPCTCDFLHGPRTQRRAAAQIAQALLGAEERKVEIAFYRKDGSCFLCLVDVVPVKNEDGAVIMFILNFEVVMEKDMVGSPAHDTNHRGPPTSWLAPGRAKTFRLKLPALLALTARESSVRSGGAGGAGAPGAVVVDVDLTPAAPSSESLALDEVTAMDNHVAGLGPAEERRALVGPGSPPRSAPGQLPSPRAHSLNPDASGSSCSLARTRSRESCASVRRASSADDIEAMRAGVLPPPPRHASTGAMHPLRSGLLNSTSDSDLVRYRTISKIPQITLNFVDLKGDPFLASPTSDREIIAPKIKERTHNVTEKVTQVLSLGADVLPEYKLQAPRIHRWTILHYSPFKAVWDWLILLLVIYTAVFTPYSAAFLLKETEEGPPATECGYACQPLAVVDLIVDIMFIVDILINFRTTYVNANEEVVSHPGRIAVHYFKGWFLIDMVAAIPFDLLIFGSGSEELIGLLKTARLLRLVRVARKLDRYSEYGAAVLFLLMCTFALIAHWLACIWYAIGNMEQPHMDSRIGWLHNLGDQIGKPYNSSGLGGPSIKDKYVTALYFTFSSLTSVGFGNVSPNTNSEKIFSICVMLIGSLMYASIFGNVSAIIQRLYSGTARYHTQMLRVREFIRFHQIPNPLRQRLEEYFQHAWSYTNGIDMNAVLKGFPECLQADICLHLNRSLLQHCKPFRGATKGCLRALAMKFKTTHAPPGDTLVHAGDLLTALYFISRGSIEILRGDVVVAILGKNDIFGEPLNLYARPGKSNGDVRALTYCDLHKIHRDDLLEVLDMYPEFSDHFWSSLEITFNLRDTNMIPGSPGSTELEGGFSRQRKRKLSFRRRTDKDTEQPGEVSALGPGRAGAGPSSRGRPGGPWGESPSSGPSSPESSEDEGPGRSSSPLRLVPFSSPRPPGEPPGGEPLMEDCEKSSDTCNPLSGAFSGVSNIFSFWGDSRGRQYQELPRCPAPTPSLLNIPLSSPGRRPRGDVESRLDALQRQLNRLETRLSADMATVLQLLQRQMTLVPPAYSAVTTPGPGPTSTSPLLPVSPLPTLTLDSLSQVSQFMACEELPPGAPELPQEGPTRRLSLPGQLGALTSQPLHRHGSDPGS
row,Structure (SMILES),"hERG current change (%, negative = inhibition) at 10uM"
1,CCCc1cc(=O)oc2cc(OCC(=O)NCC3CCC(C(=O)O)CC3)ccc12 (stereo not drawn),-16.1%
2,O=C(NC1CC1)C1=C[C@@H](c2csc3ccccc23)C[C@@H](OCc2ccc(CO)cc2)O1,-9.44%
3,Cc1c(Cc2ccccc2)sc(NC(=O)/C=C/c2cccc3ccccc23)c1C(N)=O,20%
4,Cc1ccc(CNC(=O)c2cc3c(s2)CN(Cc2ccccc2)C3)cc1.Cl,3.85%
5,CC(NC(=O)c1cccc(S(=O)(=O)N2CCN(Cc3ccccc3)CC2)c1)c1ccc(Br)cc1 (stereo not drawn),-17.6%
6,O=C1CSCC(=O)N1Cc1ccc(Cl)cc1Cl,13.5%
7,CCCN1C(=O)c2ccccc2NC1c1ccc(OC)c(CSc2ccccn2)c1 (stereo not drawn),-2.44%
8,COc1cc(C(=O)N2CCC(c3nc(-c4cccnc4)no3)CC2)cc(OC)c1OC,-8.08%
9,O=c1ccc(NS(=O)(=O)c2ccc(Cl)cc2)cn1Cc1ccc(Cl)c(Cl)c1,8.48%
10,Nc1c(O)cccc1C(=O)O,11.2%
11,O=C1[C@H]2[C@H](ON3CCCC[C@H]23)C(=O)N1c1ccc(Cl)cc1,16.3%
12,CC(Oc1ccc(Cl)cc1)c1ccnn1S(=O)(=O)c1ccccc1 (stereo not drawn),5.02%
13,O=C(/C=C/c1ccccc1)c1ccoc1,-6.57%
14,CCOCc1nnc(NC(=O)CSc2ccc(C)cc2)s1,6.61%
15,CCCNC(=O)c1ccccc1N1CCN(CCCCN2C(=O)C3CCCCN3C2=O)CC1.Cl.O (stereo not drawn),-33.5%
16,Cc1cccc(/C=C/C(=O)c2ccc(NC3=NCCCS3)cc2)c1,4.59%
17,CC(=O)Nc1cc(C(=O)CSc2nnc(C3CC3)n2C2CC2)ccc1O,2.93%
18,COC(=O)c1ccccc1NC(=O)c1cn(-c2ccc(C)c(C)c2)c(=O)c2ccccc12,24.8%
19,CCOc1cc(/C=N/NC(=O)COc2ccc(C)cc2)ccc1OC(=O)c1cccs1,-4.03%
20,CCc1ccccc1NC(=O)CN(C)C(=O)CSc1nnc(Nc2cccc(C)c2C)s1,-3.55%
21,NNC(=O)COc1ccccc1F,6.85%
22,COc1ccc(COC(=O)N/N=C(\C)CC(=O)Nc2ccc(Cl)cn2)cc1,-30.7%

row,Structure (SMILES),"hERG current change (%, negative = inhibition) at 10uM"
1,CCOC(=O)c1sc(NC(=O)COc2ccc3c(c2)OCO3)nc1C,7.47%
2,O=C(CCS(=O)(=O)Cc1cccc(Cl)c1)NCCc1ccccc1,15.2%
3,CC(OC(=O)C1CC1)C(=O)Nc1ccc([N+](=O)[O-])cc1Cl (stereo not drawn),-10.1%
4,CC12CCC(C(=O)Nc3cc(Cl)ccc3Cl)(C/C1=N\O)C2(C)C (stereo not drawn),-19%
5,CC(C)c1ccc(CCNC(=O)c2cccc(S(=O)(=O)N3CCN(C)CC3)c2)cc1,-26%
6,O=[N+]([O-])c1ccc2c(c1)C=C1CCCCC1(N1CCCC1)O2 (stereo not drawn),2.82%
7,CC1=NOC(=O)/C1=C\c1ccc(-c2cccc(Cl)c2)o1,10.4%
8,COc1cc2c(cc1OC)CN(C(=O)CSc1nnc(C)s1)CC2,20.7%
9,Cc1ccccc1NS(=O)(=O)c1ccc(NS(=O)(=O)c2cccs2)cc1,2.87%
10,Cc1ccc2c(C)nc(Nc3nc(CSc4nc5ccccc5[nH]4)cc(=O)[nH]3)nc2c1,-5.41%
11,CCCCCCCN(C(=O)CCl)c1ccccc1C,1.78%
12,COc1ccc(-c2csc(NC(=O)c3ccccc3Br)c2C(=O)O)cc1,13.2%
13,COc1ccccc1CN(CC(=O)NCC1CCCO1)C(=O)CNS(=O)(=O)c1ccc(C)cc1 (stereo not drawn),-29.6%
14,CCOC(=O)c1nn(-c2ccc(F)cc2)c2nc(Nc3ccccc3)cc(=O)n12,6.17%
15,O=C(CSc1ccccn1)N/N=C/c1c[nH]c2ccccc12,13.6%
16,O=C(CC(C(=O)O)P(=O)(c1ccccc1)c1ccccc1)c1ccccc1 (stereo not drawn),24.3%
17,N#Cc1ccsc1NC(=O)CN(Cc1ccccc1)Cc1ccccc1,3.65%
18,COCCN(C(=O)CSc1nc2ccc(Cl)cc2[nH]1)c1c(N)n(Cc2ccccc2)c(=O)[nH]c1=O,-7.02%
19,COc1ccc(-c2nc(SC(C)C(=O)NCC3CCCO3)n[nH]2)cc1 (stereo not drawn),-8.66%
20,CCOC(=O)N1CCC(N2C(=O)c3ccccc3C2Nc2ccc(S(=O)(=O)N3CCOCC3)cc2)CC1 (stereo not drawn),-16.7%
21,CCOC(=O)c1sc(N)c(C#N)c1CSc1nnc(C2CCCCC2)n1N,-1.65%
22,Cc1c(C=C2C(=O)NC(=O)NC2=O)c(=O)n(-c2ccccc2)n1C,19.9%

row,Structure (SMILES),"hERG current change (%, negative = inhibition) at 10uM"
1,COc1ccc(C(=O)NC2CCCCCC2)cc1S(=O)(=O)N1CCCC1,5.55%
2,Cc1nnsc1C(=O)N1CCCC(Nc2ccc(C(C)C)cc2)C1 (stereo not drawn),-13.4%
3,O=C(NCC1OCCCN1S(=O)(=O)c1cc(F)ccc1F)C(=O)NC1CCCC1 (stereo not drawn),-3.09%
4,CCNC(=S)N(CCN(C)C)Cc1cc2cc(OCC)ccc2[nH]c1=O,-23.3%
5,Cn1c(SCc2ccccc2)nc(C(F)(F)F)cc1=O,-33.2%
6,O=C(CCn1cnc2ccccc2c1=O)Nc1nc2c(s1)CCCC2,7.92%
7,Cc1ccc(CNC(=O)CCNS(=O)(=O)c2cccc3nsnc23)cc1,-4.7%
8,CN(Cc1ccon1)C(=O)CC1C(=O)NCCN1CC1CCCCC1 (stereo not drawn),11.6%
9,Cc1cccc(C)c1NC(=O)COC(=O)CCc1c[nH]c2ccccc12,6.23%
10,Cc1nc2ccc(F)cc2cc1C(=O)Nc1ccc(Cl)c(Cl)c1,20.6%
11,CC1CCCC(C)N1C(=O)COc1ccc(C(=O)Nc2ccccc2N2CCOCC2)cc1 (stereo not drawn),-20.1%
12,Cc1ccc(CS(=O)(=O)CCC(=O)NCCc2ccccc2)cc1,11.8%
13,COC(=O)C1=C(C)NC(=S)NC1c1sccc1C (stereo not drawn),8.98%
14,CC1(c2ccccc2)NC(=O)N(CC(=O)NCc2cccc(Cl)c2)C1=O (stereo not drawn),-10.6%
15,COc1ccccc1NS(=O)(=O)c1cccc(C(=O)NNC(=O)c2ccc(NC(C)=O)cc2)c1,10.2%
16,Cn1c(=O)[nH]c(=O)c2c1nc(NCCCO)n2CCCc1ccccc1,-5.36%
17,COCCNC(=O)c1ccc2c(=O)n(Cc3ccco3)c(SCC(=O)NC3CCCC3)nc2c1,-45.2%
18,Cc1[nH]c(=O)nc(SCc2ccc(Cl)c(Cl)c2)c1C#N,13.5%
19,O=C(COc1ccc(Cl)cc1)Nc1cccc(-c2ccc(N3CCOCC3)nn2)c1,0.684%
20,Cc1ccc(NC(=O)c2cc3cccc([N+](=O)[O-])c3[nH]2)cc1,9.96%
21,COc1ccc(CCC(C)NC2CCCCCCC2)cc1 (stereo not drawn),-31.2%
22,Oc1ccc(F)cc1-c1cc(-c2ccc3c(c2)OCCO3)n[nH]1,17.8%

row,Structure (SMILES),"hERG current change (%, negative = inhibition) at 10uM"
1,Cn1nnc2cc(C(=O)Nc3cccnc3)ccc21,4.88%
2,Cc1[nH]nc2c1/C(=N\O)CCC2,0.346%
3,COc1ccccc1N1CCN(Cc2cnc(-c3ccccc3)[nH]2)CC1,-29.8%
4,O=C(O)C(=O)O.c1ccc(-c2ccccc2OCCOCCN2CCOCC2)cc1,6.15%
5,CCCCN1C(=O)CCC(C(=O)O)C1c1ccc([N+](=O)[O-])cc1 (stereo not drawn),18.4%
6,CCOc1ccc(CN(C)C(=O)[C@H](Cc2ccccc2)NC(=O)OCc2ccccc2)cc1OC,-15.7%
7,C=CCNC(=S)Nc1cccc2[nH]ncc12,9.04%
8,COCCn1c(SCC(=O)c2c(N)n(C3CC3)c(=O)[nH]c2=O)nnc1-c1ccc(Cl)cc1,13.6%
9,CCCN(Cc1nnc(-c2cccs2)o1)C(=O)c1cccc(S(=O)(=O)N2CCOCC2)c1,-25.3%
10,COc1ccc(Cc2nnc(CCc3ccccc3)s2)cc1,-3.78%
11,CNc1ccccc1C(C)(C)c1cc(-c2cccc(Br)c2)no1,-3.29%
12,COc1cc2c(cc1OC)C(c1cccnc1)CC(=O)N2 (stereo not drawn),-18.2%
13,CCCn1c(N)c(C(=O)CSc2nc3ccccc3n2CCC#N)c(=O)n(C)c1=O,4.46%
14,Nc1nonc1-n1nnc(C(=O)N/N=C/c2ccncc2)c1CSc1ccccc1,-1.76%
15,CCN1CCN(c2nc3ccccn3c(=O)c2/C=C(\C#N)S(=O)(=O)c2ccccc2)CC1,-42.3%
16,CCN(CC)C(=O)Cn1nc(C)c2ccccc2c1=O,16.1%
17,O=C(CO/N=C/c1ccccc1OC(F)F)NC1CCCC1,-13.7%
18,COc1ccc(/C=N/NC(=O)c2ccc(COc3ccccc3Cl)o2)cc1,2.39%
19,O=C(CSc1nnc(NC(=O)c2c(F)cccc2F)s1)NCc1ccco1,-6.47%
20,COc1ccc(S(=O)(=O)n2nc(C)c(S(=O)(=O)N3CCOCC3)c2C)cc1,19.4%
21,COc1ccc(S(=O)(=O)Nc2c(C(=O)O)[nH]c3ccccc23)cc1OC,-11.8%
